# Laboratory results as given in PubChem BioAssay AID588579 (National Center for Advancing Translational Sciences (NCATS), 2011).
# Values joined by “and” are separate entries in the source; they are usually repeats but may differ in a detail not shown here. Equal values may be shown once. The whole screen tested about 400,000 compounds, of which about 2,200 (0.55%) were called active. The inconclusive results got no clear call from the source; some entries with a clear call stand among them for comparison. Calls come from the whole dose curve; as a rule, active = well fitted inhibition curve with a large enough effect; inconclusive = small, poorly fitted or top-dose-only effect, or another doubt; inactive = no such curve, though single readings can be large or run the other way. Where the call is inconclusive, the potency comes from a doubtful curve fit. Non-standard residues stand in square brackets, D forms with d. Residues, ends and D or L forms follow the SMILES beside them. Groups on a side chain read outwards from the residue. *: point of attachment. X1 = CCC(C)C(N)C1=NC(C(=O)*)CS1; Orn = NCCC[CH](N)C(=O)O
# Target: DNA polymerase kappa (Homo sapiens) (UniProt Q9UBT6)
# Chain of UniProt Q9UBT6 (Q9UBT6 whole entry, looked up): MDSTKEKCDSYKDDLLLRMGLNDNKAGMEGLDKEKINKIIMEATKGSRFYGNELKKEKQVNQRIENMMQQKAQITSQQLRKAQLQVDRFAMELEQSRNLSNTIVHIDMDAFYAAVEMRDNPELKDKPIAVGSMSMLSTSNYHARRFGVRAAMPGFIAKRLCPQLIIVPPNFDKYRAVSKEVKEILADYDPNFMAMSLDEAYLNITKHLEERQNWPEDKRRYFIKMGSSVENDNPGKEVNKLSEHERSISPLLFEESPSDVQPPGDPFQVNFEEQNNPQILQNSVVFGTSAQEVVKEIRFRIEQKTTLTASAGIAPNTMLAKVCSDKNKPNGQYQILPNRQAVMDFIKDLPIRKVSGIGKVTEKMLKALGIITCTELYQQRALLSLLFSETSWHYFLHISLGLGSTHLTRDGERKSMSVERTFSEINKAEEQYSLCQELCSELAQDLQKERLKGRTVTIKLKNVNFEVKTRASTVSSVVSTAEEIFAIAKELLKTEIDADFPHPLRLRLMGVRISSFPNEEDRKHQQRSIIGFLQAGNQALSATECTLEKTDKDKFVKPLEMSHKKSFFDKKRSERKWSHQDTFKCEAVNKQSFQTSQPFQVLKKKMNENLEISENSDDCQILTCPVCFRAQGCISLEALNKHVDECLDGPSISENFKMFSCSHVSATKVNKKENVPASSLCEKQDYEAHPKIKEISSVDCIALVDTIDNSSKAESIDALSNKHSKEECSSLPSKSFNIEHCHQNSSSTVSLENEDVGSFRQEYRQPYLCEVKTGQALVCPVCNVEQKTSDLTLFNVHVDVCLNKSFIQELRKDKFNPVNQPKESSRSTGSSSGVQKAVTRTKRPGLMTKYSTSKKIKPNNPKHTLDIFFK
# Test: qHTS for Inhibitors of Polymerase Kappa
# Conditions: purified Pol kappa, fluorescent DNA synthesis assay, 10 min; series mostly up to 107 µM
# How it was run: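 Enzyme at 10 nM met test compounds for 15 min at room temperature. Substrate addition (50 nM final) began the reaction, which was monitored by fluorescence at 0 and 10 min.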
# Potency is the fitted concentration of half-maximal effect; tags give direction and shape of the fitted curve.
row,SMILES,Potency
1,NNc1nc2c(Cl)cccc2s1,"inconclusive: 89.1 µM [inhibitor, single point]"
2,O=C1C(Cc2ccccc2)Nc2ncnc(N3CCOCC3)c2N1Cc1ccc(Br)cc1 (stereo not given),"inconclusive: 89.1 µM [inhibitor, single point]"
3,Cc1cccc(Nc2nn3c(=O)c4ccccc4nc3s2)c1,"inconclusive: 89.1 µM [inhibitor, single point]"
4,O=C(CSc1nc2ccccc2o1)N/N=C/c1ccccc1,inactive
5,COc1ccc(N2CCN(S(=O)(=O)c3ccc(-n4cnnn4)c(C)c3)CC2)cc1,"inconclusive: 89.1 µM [inhibitor, partial curve, poor fit]"
6,CC(=O)N1CCCC1c1nc2ccccc2n1Cc1cccc(Cl)c1 (stereo not given),inactive
7,COc1cc2nc(N3CCCN(C)CC3)nc(OC3CCN(C)CC3)c2cc1OC,inactive
8,Cc1cc2c(c(=O)o1)C1(C(=O)N(CC(=O)O)c3ccccc31)C(C#N)=C(N)O2 (stereo not given),"inconclusive: 70.8 µM [inhibitor, partial curve, poor fit]"
9,Cc1ccc(C)c(CNC(=O)C2CCN(c3nc4ccccc4nc3C(F)(F)F)CC2)c1,inactive
10,Cc1cccc(Nc2cc(C)c3c(O)cccc3n2)c1C,inactive
11,CCc1nn2c(=O)cc(COC(=O)c3ccc(NC(=O)c4cccs4)cc3)nc2s1,inactive
12,Cc1cc(C)c2c(=O)n(CC(=O)N3CCC(N4CCCCC4)CC3)sc2n1,inactive
13,CCOC(=O)C1=C(C)N=c2s/c(=C/c3ccc(OCC(=O)O)c(OC)c3)c(=O)n2C1c1ccc(Cl)cc1 (stereo not given),"inconclusive: 25.1 µM [inhibitor, full curve, poor fit]"
14,O=C1C=C(O)c2[nH]c(=O)ccc2C1=O,"inconclusive: 56.2 µM [inhibitor, partial curve, poor fit]"
15,CC1(C)OB(c2cnc(C#N)nc2)OC1(C)C,inactive
16,CCOc1ccc2nc(SCC(=O)c3ccc(O)cc3O)sc2c1,"inconclusive: 89.1 µM [inhibitor, partial curve, poor fit]"
17,Oc1c(CN2CCOCC2)ccc(CN2CCOCC2)c1O,"inconclusive: 56.2 µM [inhibitor, partial curve, poor fit]"
18,COc1ccc(C(=O)N2CCC3(CC2)CCN(C(c2ccccc2)c2ccccc2)CC3)cc1,"inconclusive: 15.8 µM [inhibitor, partial curve, poor fit]"
19,CCC(C)C(N)C1=NC(C(=O)NC(CC(C)C)C(=O)NC(CCC(=O)O)C(=O)NC(C(=O)NCCCCC2NC(=O)C(CC(N)=O)NC(=O)C(CC(=O)O)NC(=O)C(Cc3cnc[nH]3)NC(=O)C(Cc3ccccc3)NC(=O)C(C(C)CC)NC(=O)C(CCCN)NC2=O)C(C)CC)CS1 (stereo not drawn) (cyclo(DNK([Ile-Glu-Leu-X1])[Orn]IFH); configuration not given here),"inconclusive: 11.2 µM [inhibitor, partial curve, poor fit]"
20,CN(C)C(CNC(=O)c1cc(-c2ccco2)nc2ccccc12)c1ccccc1 (stereo not given),active: 25.1 µM
21,COC(=O)c1ccc(=O)c2nc3/c(=C/O)c(O)cc(=O)c3[nH]c12,active: 14.1 µM
22,O=[N+]([O-])c1cccc(NC(=S)Nc2nc(-c3ccccc3Cl)cs2)c1,inactive
23,CCOC(=O)c1c(-c2ccco2)csc1NC(=O)COC(=O)c1cnc(C)cn1,"inconclusive: 89.1 µM [inhibitor, single point]"
24,CCCCC(C(=O)O)C(C)CC(=O)Nc1nncs1 (stereo not given),"inconclusive: 89.1 µM [inhibitor, partial curve, poor fit]"

row,SMILES,Potency
1,COc1ccc(/C=C2\Sc3ccc(C(=O)N4CCOCC4)cc3N(C)C2=O)cc1,"inconclusive: 89.1 µM [inhibitor, single point]"
2,O=c1c2cc(N3CCOCC3)ccc2[nH]c(=S)n1Cc1ccco1,active: 79.4 µM
3,O=C(O)c1ccc(-n2cccc2/C=C2/NC(=O)N(c3ccccc3)C2=O)cc1,active: 22.4 µM
4,CC(=O)Nc1cccc(NC(=O)CSc2ccc(-c3cccnc3)nn2)c1,active: 89.1 µM
5,N#Cc1c(NC(=O)CSc2nnc(-c3ccccc3)o2)sc2c1CCCC2,"inconclusive: 89.1 µM [inhibitor, single point]"
6,N#Cc1c(C(F)(F)F)cc(-c2cccs2)nc1SCC(=O)Nc1ccc(F)cc1,inactive
7,COc1cccc(N2[C@@H](CC(C)=O)c3ccc(/C=C/C(C)=O)cc3S2(=O)=O)c1,inactive
8,N#CNc1nc(O)cc(=O)[nH]1,active: 79.4 µM
9,Cn1c(N)c(C(=O)COC(=O)c2cc(-c3ccco3)nc3ccccc23)c(=O)n(C)c1=O,"inconclusive: 50.1 µM [inhibitor, partial curve, poor fit]"
10,COc1ccc(NC(=O)Cn2c(C)cc(=O)c3ccccc32)cc1,"inconclusive: 89.1 µM [inhibitor, single point]"
11,CCN(CC)c1cc(C)c(/C=C/c2ccnc3ccccc23)cc1C,inactive
12,CSCCC(C(=O)OC1CCOC1=O)N1C(=O)c2ccccc2C1=O (stereo not given),"inconclusive: 89.1 µM [inhibitor, single point]"
13,C=C1C=C(C)n2ncc(C(=O)Nc3ccccc3C(=O)OC)c2N1,inactive
14,O=c1c([N+](=O)[O-])c(O)c2cccc3c2n1CCC3,"inconclusive: 89.1 µM [inhibitor, single point]"
15,c1coc(CSSCc2ccco2)c1,active: 8.91 µM
16,O=C(O)c1cc(NCc2cc(O)ccc2O)ccc1O,active: 50.1 µM
17,O=C1c2cccnc2C(=O)N1Cc1cccs1,"inconclusive: 79.4 µM [inhibitor, partial curve, poor fit]"
18,Cc1c(NC(=S)NC(=O)c2ccc(COc3ccccc3)cc2)cccc1C(=O)O,inactive
19,CCOCCCNC(=O)C(c1ccc(C)cc1)N(Cc1cccs1)C(=O)c1ccccc1O (stereo not given),"inconclusive: 89.1 µM [inhibitor, partial curve, poor fit]"
20,CCOc1ccccc1C(=O)N(Cc1cccs1)c1ccc(Cl)cc1,inactive
21,CN(Cc1ccc(C(C)(C)C)cc1)Cc1cccc2ccccc12,"inconclusive: 39.8 µM [inhibitor, single point]"
22,COc1ccccc1CNc1ncnc2c1c(-c1ccccc1)cn2-c1cccc(C)c1,inactive
23,Cc1cc(/C=N/NC(=O)c2cccc(N(C)C)c2)c(C)n1-c1cc(C(=O)O)cc(C(=O)O)c1,active: 31.6 µM
24,C=CCNC(=O)c1ccc(C2SCC(=O)N2Cc2ccco2)cc1 (stereo not given),"inconclusive: 89.1 µM [inhibitor, partial curve, poor fit]"

row,SMILES,Potency
1,N=C(CC(O)COc1ccccc1-c1ccccc1)N1CCCCC1 (stereo not given),"inconclusive: 23.8 µM [inhibitor, single point]"
2,CN(C)c1ccc(C(=O)OCC(=O)Nc2ccc(S(N)(=O)=O)cc2)cc1,active: 50.1 µM
3,CC(/C=C/c1ccc(N(C)C)cc1)=N\N=C(/N)SC1CC(=O)N(c2ccc(C(=O)O)cc2)C1=O (stereo not given),inactive
4,NC(CSCC(=O)O)C(=O)O (stereo not given),"inconclusive: 39.8 µM [inhibitor, partial curve, poor fit]"
5,c1cncc(-c2ccc3ncnc(NCc4cccs4)c3c2)c1,"inconclusive: 89.1 µM [inhibitor, single point]"
6,Cc1ccc(C(=O)NCC(=O)OCC(=O)Nc2ccccc2C#N)s1,inactive
7,Cc1ccc(C)c(N2CCN(C3(c4ccccc4)C(=O)c4ccccc4C3=O)CC2)c1,inactive
8,O=c1c2ccc([N+](=O)[O-])cc2ncn1CCOc1ccccc1,"inconclusive: 89.1 µM [inhibitor, single point]"
9,Cc1cnc(CNc2nc(-c3ccc4c(c3)OCO4)nc3ccccc23)cn1,"inconclusive: 8.91 µM [inhibitor, partial curve, poor fit]"
10,Cc1cccc(C(=O)OCC(=O)NCc2ccco2)c1,"inconclusive: 89.1 µM [inhibitor, single point]"
11,O=C(O)C1OC(Oc2cc3oc(-c4ccccc4)cc(=O)c3c(O)c2O)C(O)C(O)C1O (stereo not given),active: 79.4 µM
12,O=C(Nc1nnc(CCN2CCCCC2)s1)C1CCCCC1,"inconclusive: 79.4 µM [inhibitor, partial curve, poor fit]"
13,O=C(O)c1cc(O)c2c(c1)C(=O)c1cc(O)cc(O)c1C2=O,active: 79.4 µM and active: 22.4 µM
14,O=C(O)COc1ccccc1C(Nc1cccnc1)c1cc(Cl)c2cccnc2c1O (stereo not given),"inconclusive: 89.1 µM [inhibitor, single point]"
15,O=c1[nH]c2cc(Cl)ccc2c(O)c1-c1cccc(Oc2ccccc2)c1,"inconclusive: 37.7 µM [inhibitor, single point]"
16,CCN(CC(=O)Nc1ccc(NC(C)=O)cc1)C(=O)/C=C/c1ccc(C)o1,"inconclusive: 70.8 µM [inhibitor, partial curve, poor fit]"
17,CC(=O)Oc1ccc(C(=O)Nc2ccc(C3(C#N)CCCC3)cc2)cc1,inactive
18,COc1ccc(S(=O)(=O)N(CCc2ccccc2)CC(=O)Nc2cc(Cl)ccc2C)cc1,"inconclusive: 89.1 µM [inhibitor, single point]"
19,O=[N+]([O-])c1ccc(/C=C/C2=NN(c3ccccc3)C(c3ccco3)C2)o1 (stereo not given),"inconclusive: 100 µM [inhibitor, single point]"
20,C=CCN1CCc2c(cc(O)c(O)c2Cl)C(c2ccccc2)C1 (stereo not given),"inconclusive: 26.7 µM [inhibitor, single point]"
21,COc1ccc(C)cc1NC(C)C(=O)c1c[nH]c2ccccc12 (stereo not given),inactive
22,Cc1ccc(NC(=O)C(C)OC(=O)C2CC3CCCC(C2)C3=O)cc1S(=O)(=O)N1CCOCC1 (stereo not given),"inconclusive: 89.1 µM [inhibitor, partial curve, poor fit]"
